# Experimental data: paper PMC3142473 (Journal of medicinal chemistry, 2008)
# Where two headings read alike, the source gives them in different places.
# Assays:
# Sprague–Dawley rats [1] = assay: Maximal electroshock-induced seizures in rats; settings: for duration of tonic hind limb extension: 30 mg/kg ip, 30 min pre-electroshock
# [2] = target: recombinant rat NR1/NR2B receptors (Rattus norvegicus, UniProt P35439+Q00960)
# mice = settings: for rotorod performance (latency to fall): day 5
# Sprague–Dawley rats [3] = settings: for locomotor activity (total horizontal activity): ip, Figure 6A, p < 0.05 vs vehicle
# NR1/NR2A = NR1/NR2A (Rattus norvegicus, UniProt Q00959); assay: Two electrode voltage clamp, oocytes, NR1/NR2A; assay type: cell-based; settings: 3 μM; 50 μM glutamate plus 30 μM glycine
# NR1/NR2C = NR1/NR2C (Rattus norvegicus, UniProt Q00961); assay: Two electrode voltage clamp, oocytes, NR1/NR2C; assay type: cell-based; settings: 3 μM; 50 μM glutamate plus 30 μM glycine
# NR1/NR2D = NR1/NR2D (Rattus norvegicus, UniProt Q62645); assay: Two electrode voltage clamp, oocytes, NR1/NR2D; assay type: cell-based; settings: 3 μM; 50 μM glutamate plus 30 μM glycine
# [4] = system: AMPA receptor subunit combinations GluR3, GluR4, and GluR2/3; assay: Two electrode voltage clamp, oocytes, recombinant AMPA receptors; assay type: cell-based, rat; settings: 3 μM; activated by 50 μM kainate
# [5] = system: kainate receptor GluR6 and GluR6/KA1; assay: Two electrode voltage clamp, oocytes, recombinant kainate receptors; assay type: cell-based, rat; settings: 3 μM; GluR6 by 3 nM domoate, GluR6/KA1 by 100 μM AMPA
# L-type calcium channels = assay: Binding to L-type calcium channels; settings: read-out: IC50, L-type calcium channel binding; data not shown
# N-type calcium channels = N-type calcium channels (Homo sapiens, UniProt Q00975); assay: Binding to N-type calcium channels
# UniProt Q00975, sequence (Q00975 whole entry): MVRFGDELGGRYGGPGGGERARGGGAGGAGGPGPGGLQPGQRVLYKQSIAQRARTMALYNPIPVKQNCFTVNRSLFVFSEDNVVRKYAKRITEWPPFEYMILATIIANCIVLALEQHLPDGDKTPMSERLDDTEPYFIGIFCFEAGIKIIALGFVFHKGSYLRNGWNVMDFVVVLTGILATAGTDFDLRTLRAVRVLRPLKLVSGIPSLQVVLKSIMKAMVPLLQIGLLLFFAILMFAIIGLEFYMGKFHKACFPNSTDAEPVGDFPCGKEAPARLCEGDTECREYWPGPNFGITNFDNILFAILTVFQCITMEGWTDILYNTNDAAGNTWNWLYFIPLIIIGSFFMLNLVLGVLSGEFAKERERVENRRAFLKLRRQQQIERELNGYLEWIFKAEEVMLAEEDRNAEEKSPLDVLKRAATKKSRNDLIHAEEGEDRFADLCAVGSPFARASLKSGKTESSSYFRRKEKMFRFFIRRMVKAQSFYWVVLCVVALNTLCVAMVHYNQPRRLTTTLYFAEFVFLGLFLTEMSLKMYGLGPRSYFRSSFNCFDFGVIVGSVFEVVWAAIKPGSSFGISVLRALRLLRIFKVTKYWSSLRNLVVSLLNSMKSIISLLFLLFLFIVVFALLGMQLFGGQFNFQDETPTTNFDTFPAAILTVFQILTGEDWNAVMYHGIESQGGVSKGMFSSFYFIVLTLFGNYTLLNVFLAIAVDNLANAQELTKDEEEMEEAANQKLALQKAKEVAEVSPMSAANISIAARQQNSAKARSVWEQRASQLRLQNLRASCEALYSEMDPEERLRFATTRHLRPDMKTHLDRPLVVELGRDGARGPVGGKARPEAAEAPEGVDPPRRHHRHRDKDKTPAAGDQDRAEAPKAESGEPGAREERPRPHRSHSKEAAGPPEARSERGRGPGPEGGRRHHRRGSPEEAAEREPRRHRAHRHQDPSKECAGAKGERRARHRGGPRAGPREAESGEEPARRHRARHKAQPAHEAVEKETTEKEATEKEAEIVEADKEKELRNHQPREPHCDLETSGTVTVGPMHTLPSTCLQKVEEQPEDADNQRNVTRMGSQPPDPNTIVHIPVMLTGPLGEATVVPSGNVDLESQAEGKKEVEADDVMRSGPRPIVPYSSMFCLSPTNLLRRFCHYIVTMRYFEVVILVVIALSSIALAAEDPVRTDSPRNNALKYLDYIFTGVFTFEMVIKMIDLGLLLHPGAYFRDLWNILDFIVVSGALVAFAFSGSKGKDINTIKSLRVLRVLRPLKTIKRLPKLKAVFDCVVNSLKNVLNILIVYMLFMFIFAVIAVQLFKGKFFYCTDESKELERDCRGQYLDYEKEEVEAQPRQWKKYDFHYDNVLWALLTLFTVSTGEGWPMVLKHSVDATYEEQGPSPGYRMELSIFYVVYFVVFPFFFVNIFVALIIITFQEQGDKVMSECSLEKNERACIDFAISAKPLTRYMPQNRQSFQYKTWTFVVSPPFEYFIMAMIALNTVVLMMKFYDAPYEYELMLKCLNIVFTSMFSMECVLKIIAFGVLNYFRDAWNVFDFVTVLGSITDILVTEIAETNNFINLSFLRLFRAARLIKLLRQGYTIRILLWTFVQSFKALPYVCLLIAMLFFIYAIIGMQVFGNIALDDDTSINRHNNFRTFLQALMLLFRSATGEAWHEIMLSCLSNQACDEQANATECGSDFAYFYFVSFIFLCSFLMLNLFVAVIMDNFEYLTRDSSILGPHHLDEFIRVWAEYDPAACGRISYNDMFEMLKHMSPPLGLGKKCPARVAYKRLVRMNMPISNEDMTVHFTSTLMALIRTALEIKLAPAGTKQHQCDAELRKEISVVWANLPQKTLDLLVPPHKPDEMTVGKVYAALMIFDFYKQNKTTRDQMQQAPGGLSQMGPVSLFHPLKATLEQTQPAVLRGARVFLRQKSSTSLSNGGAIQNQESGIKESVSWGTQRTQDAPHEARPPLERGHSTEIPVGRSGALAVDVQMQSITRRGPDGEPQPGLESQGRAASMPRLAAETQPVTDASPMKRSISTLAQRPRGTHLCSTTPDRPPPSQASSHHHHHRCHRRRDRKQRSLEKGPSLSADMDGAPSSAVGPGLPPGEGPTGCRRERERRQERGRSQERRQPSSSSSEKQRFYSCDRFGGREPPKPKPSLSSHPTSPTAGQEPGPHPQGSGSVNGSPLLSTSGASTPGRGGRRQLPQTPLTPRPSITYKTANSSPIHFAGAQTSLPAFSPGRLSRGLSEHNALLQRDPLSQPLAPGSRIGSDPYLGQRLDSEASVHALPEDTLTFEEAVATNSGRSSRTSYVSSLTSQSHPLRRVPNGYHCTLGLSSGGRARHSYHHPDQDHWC
# α-2 adrenergic receptors = assay: Binding to α-2 adrenergic receptors; settings: read-out: α-2 adrenergic receptor binding IC50
# C57Bl/6 mice = assay: Transient focal ischemia; assay type: in vivo, mouse; settings: 30 mg/kg ip 30 min before 30 min MCA occlusion; 24 h survival; p < 0.05
# Mouse plasma binding = assay type: in vitro ADME
# Human plasma binding = assay type: in vitro ADME
# [6] = Plasma half-life and brain exposure
# [7] = system: cultured rat cortical neurons; assay: NMDA-mediated neurotoxicity of cultured rat cortical neurons; settings: 10 min 100 μM NMDA plus 10 μM glycine; 100 μM D-APV = 100%
compound,measurement,setting,value
CN(CCc1ccc(Cl)c(Cl)c1)CC(O)COc1ccc(NS(C)(=O)=O)cc1 (stereo not drawn) [66/104],duration of tonic hind limb extension,Sprague–Dawley rats [1],significantly reduced
same,voltage dependence of inhibition,[2],voltage-independent
"C[C@]12N[C@H](Cc3ccccc31)c1ccccc12 [Compound 110, (+)MK-801]",rotorod performance (latency to fall),mice; 0.3 mg/kg ip,significant impairment in performance
same,rotorod performance,"mice; 0.6 mg/kg, day 5 (not shown)",complete ataxia
CCc1cccc(N(C)C(N)=Nc2cccc3ccccc23)c1 [aptiganel],locomotor activity (total horizontal activity),Sprague–Dawley rats [3],locomotor-stimulating activity
O=C(O)[C@@H]1C[C@H](CP(=O)(O)O)CCN1 (racemic) [selfotel],locomotor activity (total horizontal activity),Sprague–Dawley rats [3],locomotor-stimulating activity
CS(=O)(=O)Nc1ccc(OC[C@@H](O)CN(CCO)CCc2ccc(Cl)c(Cl)c2)cc1 [Compound 68],duration of tonic hind limb extension,Sprague–Dawley rats [1],significantly reduced
"CS(=O)(=O)Nc1ccc(OC[C@@H](O)CNCCc2ccc(Cl)c(Cl)c2)cc1 [Compound 29, (S)-1-(4-Methanesulfonamidephenoxy)-3-(3,4-dichlorophenylethylamino)-2-propanol]","effect on evoked current, NR1/NR2A",NR1/NR2A,no effect
same,"effect on evoked current, NR1/NR2C",NR1/NR2C,no effect
same,"effect on evoked current, NR1/NR2D",NR1/NR2D,no effect
same,effect on recombinant AMPA receptors,[4],no detectable effects
same,effect on recombinant kainate receptors,[5],no detectable effects
same,IC50,L-type calcium channels,5 to 10 µM
same,IC50,N-type calcium channels,5 to 10 µM
same,IC50,α-2 adrenergic receptors,> 3000 nM
same,infarct volume,C57Bl/6 mice,significant reduction
same,plasma binding,Mouse plasma binding,88%
same,plasma binding,Human plasma binding,98%
same,effect on locomotor activity,Sprague–Dawley rats [3]; 300 mg/kg ip,virtually no effect
same,rotorod performance (latency to fall),mice; 30 mg/kg ip 20 min before first trial,does not impair performance
same,pKa,pKa determination; amino group,9
same,pKa,pKa determination; sulfonamide group,8
same,duration of tonic hind limb extension,Sprague–Dawley rats [1],did not significantly reduce
same,tonic hind limb extension duration,"Sprague–Dawley rats [1]; 100 mg/kg, p < 0.001, n = 10",68 ± 6.1 % of control
same,peak brain concentration,[6]; 30 mg/kg ip,0.17 µM
same,occupancy of NR2B receptors,"[6]; doses administered for transient ischemia, for 2 h post surgery",exceed 60%
same,plasma levels above the IC50 for hERG binding,[6]; free plasma concentration,2–3 fold
same,neuroprotection against NMDA-induced cell death (LDH release),[7],neuroprotective in a concentration-dependent fashion
same,Hill slope,[2],0.7
same,IC50,[2],33 nM
same,IC50 R/S (enantiomeric) ratio,[2]; R vs S enantiomer,3.8
same,surmountability of inhibition by increased glycine or glutamate,[2]; n = 3 oocytes each,not surmountable
same,maximal inhibition,[2]; saturating concentrations,83%
